In paper PMC8887125, “RBBP6 activates the pre-mRNA 3′ end processing machinery in humans” (Genes & Development, 2022):
Residue numbers refer to the chain shown, from its start. Names and notes keep the numbering of the source. Results are given in words; binding and its absence hold for the method and conditions named. For some of these results: Binding seen in cells or lysates may run through a third protein. Some results given as binding are weak or reduced against the parent protein; the word gives no strength. For some of these results: Tags and fused reporters may be left off the sequences shown. One block for each molecule: values may come before it.

The chains behind the UniProt entries cited, without tags or fusion partners. Where a name states a change or a piece, a line headed by the entry shows the natural chain unless it says otherwise. A line that says so, or that is headed by a name, gives the form on record, which may keep a tag or linker.
UniProt Q9P2I0: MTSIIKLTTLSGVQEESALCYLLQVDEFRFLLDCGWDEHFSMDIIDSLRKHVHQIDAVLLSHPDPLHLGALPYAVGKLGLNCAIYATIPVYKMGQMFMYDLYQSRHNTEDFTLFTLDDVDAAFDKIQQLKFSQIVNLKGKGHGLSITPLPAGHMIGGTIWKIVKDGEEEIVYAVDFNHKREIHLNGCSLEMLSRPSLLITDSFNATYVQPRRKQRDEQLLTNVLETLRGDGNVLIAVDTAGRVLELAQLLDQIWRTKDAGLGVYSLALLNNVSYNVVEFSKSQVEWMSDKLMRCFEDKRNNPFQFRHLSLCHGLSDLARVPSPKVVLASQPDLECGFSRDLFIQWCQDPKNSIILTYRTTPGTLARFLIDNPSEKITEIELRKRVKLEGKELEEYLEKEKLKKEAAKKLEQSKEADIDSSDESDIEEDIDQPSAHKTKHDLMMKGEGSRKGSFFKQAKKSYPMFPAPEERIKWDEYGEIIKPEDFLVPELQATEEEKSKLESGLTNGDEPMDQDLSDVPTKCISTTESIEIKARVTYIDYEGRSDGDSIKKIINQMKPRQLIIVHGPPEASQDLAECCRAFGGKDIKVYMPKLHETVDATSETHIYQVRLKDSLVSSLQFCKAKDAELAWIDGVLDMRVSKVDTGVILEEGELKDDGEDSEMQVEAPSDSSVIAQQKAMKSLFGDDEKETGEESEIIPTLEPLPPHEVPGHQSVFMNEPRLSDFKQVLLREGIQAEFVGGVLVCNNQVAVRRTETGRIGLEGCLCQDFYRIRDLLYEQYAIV
UniProt Q92797: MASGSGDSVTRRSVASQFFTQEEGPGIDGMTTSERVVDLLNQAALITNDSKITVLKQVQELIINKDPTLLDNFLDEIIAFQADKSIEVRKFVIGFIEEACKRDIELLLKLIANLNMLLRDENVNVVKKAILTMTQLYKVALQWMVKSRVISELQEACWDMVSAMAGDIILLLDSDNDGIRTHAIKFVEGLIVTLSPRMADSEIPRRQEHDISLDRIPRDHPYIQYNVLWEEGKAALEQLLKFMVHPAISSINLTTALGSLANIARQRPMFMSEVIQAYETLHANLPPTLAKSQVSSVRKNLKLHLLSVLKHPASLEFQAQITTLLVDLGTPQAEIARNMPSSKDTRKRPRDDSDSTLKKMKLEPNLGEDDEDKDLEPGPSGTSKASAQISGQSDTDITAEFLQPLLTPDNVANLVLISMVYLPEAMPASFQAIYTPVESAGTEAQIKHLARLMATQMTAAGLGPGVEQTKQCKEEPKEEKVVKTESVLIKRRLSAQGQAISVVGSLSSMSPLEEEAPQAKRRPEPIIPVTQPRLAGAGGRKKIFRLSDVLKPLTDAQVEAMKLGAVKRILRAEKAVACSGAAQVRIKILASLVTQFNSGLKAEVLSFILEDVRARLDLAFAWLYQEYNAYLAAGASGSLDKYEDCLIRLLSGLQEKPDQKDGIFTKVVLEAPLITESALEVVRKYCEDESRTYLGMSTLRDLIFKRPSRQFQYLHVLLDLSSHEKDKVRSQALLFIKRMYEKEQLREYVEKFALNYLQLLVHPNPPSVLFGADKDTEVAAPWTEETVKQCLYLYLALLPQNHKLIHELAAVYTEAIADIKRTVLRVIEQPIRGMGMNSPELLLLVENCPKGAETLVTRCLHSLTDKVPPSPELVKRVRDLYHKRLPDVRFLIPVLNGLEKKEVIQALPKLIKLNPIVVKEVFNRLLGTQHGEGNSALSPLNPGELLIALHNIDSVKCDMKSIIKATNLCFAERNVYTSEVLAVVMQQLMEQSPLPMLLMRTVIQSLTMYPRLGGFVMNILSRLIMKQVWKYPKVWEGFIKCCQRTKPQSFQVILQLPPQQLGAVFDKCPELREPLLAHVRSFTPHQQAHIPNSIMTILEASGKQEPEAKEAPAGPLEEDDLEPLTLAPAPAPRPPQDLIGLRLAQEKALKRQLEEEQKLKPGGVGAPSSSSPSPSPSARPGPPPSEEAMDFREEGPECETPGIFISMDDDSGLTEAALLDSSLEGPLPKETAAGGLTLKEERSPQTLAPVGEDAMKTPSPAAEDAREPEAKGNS
UniProt Q10570: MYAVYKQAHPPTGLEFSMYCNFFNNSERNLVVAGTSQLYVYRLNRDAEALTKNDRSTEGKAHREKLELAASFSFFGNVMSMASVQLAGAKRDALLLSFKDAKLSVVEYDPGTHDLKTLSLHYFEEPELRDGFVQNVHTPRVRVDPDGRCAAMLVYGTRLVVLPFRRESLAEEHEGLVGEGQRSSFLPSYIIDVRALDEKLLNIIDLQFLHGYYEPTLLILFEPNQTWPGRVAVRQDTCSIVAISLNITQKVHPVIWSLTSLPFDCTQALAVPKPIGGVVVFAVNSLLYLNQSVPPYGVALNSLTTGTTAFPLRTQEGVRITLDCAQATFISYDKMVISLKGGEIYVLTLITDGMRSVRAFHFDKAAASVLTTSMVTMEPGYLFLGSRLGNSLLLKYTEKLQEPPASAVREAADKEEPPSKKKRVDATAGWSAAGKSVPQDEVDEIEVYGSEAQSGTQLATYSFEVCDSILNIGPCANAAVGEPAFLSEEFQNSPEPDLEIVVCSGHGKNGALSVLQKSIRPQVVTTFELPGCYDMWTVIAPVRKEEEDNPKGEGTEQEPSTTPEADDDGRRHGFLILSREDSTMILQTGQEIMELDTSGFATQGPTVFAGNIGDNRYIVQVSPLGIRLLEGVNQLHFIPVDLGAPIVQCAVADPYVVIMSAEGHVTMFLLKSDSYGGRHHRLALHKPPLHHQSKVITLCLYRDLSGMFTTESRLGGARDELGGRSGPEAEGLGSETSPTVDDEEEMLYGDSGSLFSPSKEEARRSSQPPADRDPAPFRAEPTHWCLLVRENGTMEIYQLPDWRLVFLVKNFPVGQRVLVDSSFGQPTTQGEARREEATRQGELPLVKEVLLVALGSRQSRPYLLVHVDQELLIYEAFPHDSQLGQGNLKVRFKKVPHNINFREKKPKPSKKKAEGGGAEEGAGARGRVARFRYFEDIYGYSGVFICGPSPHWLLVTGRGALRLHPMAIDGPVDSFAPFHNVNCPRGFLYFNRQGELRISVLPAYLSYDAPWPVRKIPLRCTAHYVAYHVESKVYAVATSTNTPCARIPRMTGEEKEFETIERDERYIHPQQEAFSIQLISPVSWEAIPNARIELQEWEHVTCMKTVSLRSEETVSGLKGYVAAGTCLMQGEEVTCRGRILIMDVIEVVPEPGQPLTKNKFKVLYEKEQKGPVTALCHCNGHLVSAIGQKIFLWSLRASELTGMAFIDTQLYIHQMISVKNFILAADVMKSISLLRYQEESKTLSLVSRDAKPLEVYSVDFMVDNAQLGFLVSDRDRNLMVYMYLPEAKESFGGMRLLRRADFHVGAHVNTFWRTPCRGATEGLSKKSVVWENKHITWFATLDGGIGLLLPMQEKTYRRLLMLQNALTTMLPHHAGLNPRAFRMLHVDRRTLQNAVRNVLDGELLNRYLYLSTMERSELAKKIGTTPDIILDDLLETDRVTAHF
CPSF30 isoform 2, recombinant (O95639-2, form named): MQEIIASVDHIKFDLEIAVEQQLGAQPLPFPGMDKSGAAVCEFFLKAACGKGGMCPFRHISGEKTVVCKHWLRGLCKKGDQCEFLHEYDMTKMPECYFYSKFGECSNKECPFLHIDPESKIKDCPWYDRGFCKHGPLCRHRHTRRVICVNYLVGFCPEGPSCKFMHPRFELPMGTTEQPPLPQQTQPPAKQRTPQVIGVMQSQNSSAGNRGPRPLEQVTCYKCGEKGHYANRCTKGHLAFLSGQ

Assays:
[1] = biological target: T1, WDR33 (residues 1-576) with C-terminal StrepII tag, bait of recombinant mPSF (human) (UniProt Q9C0J8); experiment: co-purification of co-expressed subunits; subunits co-expressed in insect cells from one pBig1 vector; complex held by the StrepII tag of one subunit on Strep-Tactin beads (300 mM NaCl), then anion exchange and, for most, size exclusion; SDS-PAGE of the purified complex
T1 sequence: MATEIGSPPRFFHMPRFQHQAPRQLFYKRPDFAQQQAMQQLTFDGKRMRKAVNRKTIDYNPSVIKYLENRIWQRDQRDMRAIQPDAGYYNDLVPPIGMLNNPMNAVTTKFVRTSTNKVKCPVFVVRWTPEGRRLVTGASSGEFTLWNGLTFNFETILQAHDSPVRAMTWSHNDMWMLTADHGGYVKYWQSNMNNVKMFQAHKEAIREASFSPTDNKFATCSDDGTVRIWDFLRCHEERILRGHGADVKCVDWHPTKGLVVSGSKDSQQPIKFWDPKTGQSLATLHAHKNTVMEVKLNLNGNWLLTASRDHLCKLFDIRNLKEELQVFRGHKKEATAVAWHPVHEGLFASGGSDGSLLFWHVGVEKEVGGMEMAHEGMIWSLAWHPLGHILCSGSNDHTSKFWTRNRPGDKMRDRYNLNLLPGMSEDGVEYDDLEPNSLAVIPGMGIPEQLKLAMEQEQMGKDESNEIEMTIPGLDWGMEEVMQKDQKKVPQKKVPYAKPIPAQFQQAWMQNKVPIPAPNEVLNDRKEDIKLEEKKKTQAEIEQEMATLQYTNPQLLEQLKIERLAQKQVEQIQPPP

[2] = biological target: T2, StrepII-tagged ubiquitin-like domain of RBBP6 (residues 1-142) (human) (UniProt Q7Z6E9); experiment: pull-down; RBBP6UBL-SII co-expressed with a CPSF73 variant in Sf9 cells; cleared lysate on Strep-Tactin beads; 50 mM HEPES-NaOH pH 8.0, 300 mM NaCl, 1 mM TCEP, 2 mM Mg(OAc)2; stained gel
T2 sequence: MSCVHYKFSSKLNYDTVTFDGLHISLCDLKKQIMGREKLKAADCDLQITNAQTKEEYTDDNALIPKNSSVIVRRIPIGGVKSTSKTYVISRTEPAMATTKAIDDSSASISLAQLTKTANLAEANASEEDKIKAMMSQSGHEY

[3] = biological target: mCF lacking the N-terminal domain of symplekin (human) (UniProt Q9UKF6+Q9P2I0+Q92797); experiment: SEC; 2.5 µM CPSF, mCF or mCF_(symplekin ΔNTD) incubated with 10 µM SSU72 for 30 min on ice; Superose 6 Increase 3.2/300; HEPES-NaOH pH 8.0, 150 mM NaCl, 0.5 mM TCEP; peak fractions on SDS-PAGE; both purified
[4] = biological target: cleavage and polyadenylation specificity factor (CPSF), recombinant seven-subunit complex with hFip1 isoform 4 (human) (UniProt Q10570); experiment: SEC; 2.5 µM CPSF and 7.5 µM RBBP6 or its point mutants, without RNA; 30 min on ice; Superose 6 Increase 3.2/300; HEPES-NaOH pH 8.0, 50 mM NaCl, 0.5 mM TCEP; both purified
[5] = biological target: cleavage and polyadenylation specificity factor (CPSF), recombinant seven-subunit complex with hFip1 isoform 4 (human) (UniProt Q10570); experiment: condition: 2.5 µM CPSF, 7.5 µM RBBP6 mutant, 5 µM RNA; SEC; 2.5 µM CPSF and 7.5 µM RBBP6 or its point mutants with 5 µM 5'-FAM 41-nt L3 RNA; 30 min on ice; Superose 6 Increase 3.2/300; HEPES-NaOH pH 8.0, 50 mM NaCl, 0.5 mM TCEP; both purified

B2: CPSF73 N-terminal nuclease domain (residues 1-460) (domain or fragment, UniProt Q9UKF6 1-460)
chain: MSAIPAEESDQLLIRPLGAGQEVGRSCIILEFKGRKIMLDCGIHPGLEGMDALPYIDLIDPAEIDLLLISHFHLDHCGALPWFLQKTSFKGRTFMTHATKAIYRWLLSDYVKVSNISADDMLYTETDLEESMDKIETINFHEVKEVAGIKFWCYHAGHVLGAAMFMIEIAGVKLLYTGDFSRQEDRHLMAAEIPNIKPDILIIESTYGTHIHEKREEREARFCNTVHDIVNRGGRGLIPVFALGRAQELLLILDEYWQNHPELHDIPIYYASSLAKKCMAVYQTYVNAMNDKIRKQININNPFVFKHISNLKSMDHFDDIGPSVVMASPGMMQSGLSRELFESWCTDKRNGVIIAGYCVEGTLAKHIMSEPEEITTMSGQKLPLKMSVDYISFSAHTDYQQTSEFIRALKPPHVILVHGEQNEMARLKAALIREYEDNDEVHIEVHNPRNTEAVTLNFRG
- binding [2]: binds weakly

B3: SSU72 (enzyme, human, UniProt Q9NP77 1-194, looked up)
chain: MPSSPLRVAVVCSSNQNRSMEAHNILSKRGFSVRSFGTGTHVKLPGPAPDKPNVYDFKTTYDQMYNDLLRKDKELYTQNGILHMLDRNKRIKPRPERFQNCKDLFDLILTCEERVYDQVVEDLNSREQETCQPVHVVNVDIQDNHEEATLGAFLICELCQCIQHTEDMENEIDELLQEFEEKSGRTFLHTVCFY
notes: SSU72, human; the coding region amplified from the synthetic full-length gene; also called human SSU72; phosphatase SSU72; source: E. coli BL21(DE3) Star, purified (HisTrap, 3C cleavage, Superdex 75); not shown: His6, N-terminal, cleaved
- binding [3]: no binding (tested: 2.5 µM mCF_(symplekin ΔNTD), 10 µM SSU72)

B4: CPSF73, full length (enzyme, UniProt Q9UKF6 1-684)
chain: MSAIPAEESDQLLIRPLGAGQEVGRSCIILEFKGRKIMLDCGIHPGLEGMDALPYIDLIDPAEIDLLLISHFHLDHCGALPWFLQKTSFKGRTFMTHATKAIYRWLLSDYVKVSNISADDMLYTETDLEESMDKIETINFHEVKEVAGIKFWCYHAGHVLGAAMFMIEIAGVKLLYTGDFSRQEDRHLMAAEIPNIKPDILIIESTYGTHIHEKREEREARFCNTVHDIVNRGGRGLIPVFALGRAQELLLILDEYWQNHPELHDIPIYYASSLAKKCMAVYQTYVNAMNDKIRKQININNPFVFKHISNLKSMDHFDDIGPSVVMASPGMMQSGLSRELFESWCTDKRNGVIIAGYCVEGTLAKHIMSEPEEITTMSGQKLPLKMSVDYISFSAHTDYQQTSEFIRALKPPHVILVHGEQNEMARLKAALIREYEDNDEVHIEVHNPRNTEAVTLNFRGEKLAKVMGFLADKKPEQGQRVSGILVKRNFNYHILSPCDLSNYTDLAMSTVKQTQAIPYTGPFNLLCYQLQKLTGDVEELEIQEKPALKVFKNITVIQEPGMVVLEWLANPSNDMYADTVTTVILEVQSNPKIRKGAVQKVSKKLEMHVYSKRLEIMLQDIFGEDCVSVKDDSILSVTVDGKTANLNLETRTVECEEGSEDDESLREMVELAAQRLYEALTPVH
- binding [2]: binds

B6: RBBP6 (residues 1-335) Y228G (domain or fragment, UniProt Q7Z6E9 1-335)
chain: MSCVHYKFSSKLNYDTVTFDGLHISLCDLKKQIMGREKLKAADCDLQITNAQTKEEYTDDNALIPKNSSVIVRRIPIGGVKSTSKTYVISRTEPAMATTKAIDDSSASISLAQLTKTANLAEANASEEDKIKAMMSQSGHEYDPINYMKKPLGPPPPSYTCFRCGKPGHYIKNCPTNGDKNFESGPRIKKSTGIPRSFMMEVKDPNMKGAMLTNTGKYAIPTIDAEAGAIGKKEKPPFLPEEPSSSSEEDDPIPDELLCLICKDIMTDAVVIPCCGNSYCDECIRTALLESDEHTCPTCHQNDVSPDALIANKFLRQAVNNFKNETGYTKRLRKQ
- binding [4]: no binding (tested: 2.5 µM CPSF, 7.5 µM RBBP6 mutant, no RNA)
- binding [5]: no binding

More lines, main results first:

- binding [1]: binds
Molecule: CPSF30 isoform 2, recombinant (from UniProt O95639-2 1-244)

- binding [1]: binds
B1: hFip1 isoform 4, recombinant (protein, UniProt Q6UN15 1-28; Q6UN15 44-393)
chain: MSAGEVERLVSELSGGTGGDEEEEWLYGDENEVERPEEENASANPPSGIEDETAENGVPKPKVTETEDDSDSDSDDDEDDVHVTIGDIKTGAPQYGSYGTAPVNLNIKTGGRVYGTTGTKVKGVDLDAPGSINGVPLLEVDLDSFEDKPWRKPGADLSDYFNYGFNEDTWKAYCEKQKRIRMGLEVIPVTSTTNKITAEDCTMEVTPGAEIQDGRFNLFKVQQGRTGNSEKETALPSTKAEFTSPPSLFKTGLPPSRNSTSSQSQTSTASRKANSSVGKWQDRYGRAESPDLRRLPGAIDVIGQTITISRVEGRRRANENSNIQVLSERSATEVDNNFSKPPPFFPPGAPPTHLPPPPFLPPPPTVSTAPPLIPPPGK

- binding [1]: binds
B5: hFip1, full length, recombinant (protein, UniProt Q6UN15 1-594)
chain: MSAGEVERLVSELSGGTGGDEEEEWLYGGPWDVHVHSDLAKDLDENEVERPEEENASANPPSGIEDETAENGVPKPKVTETEDDSDSDSDDDEDDVHVTIGDIKTGAPQYGSYGTAPVNLNIKTGGRVYGTTGTKVKGVDLDAPGSINGVPLLEVDLDSFEDKPWRKPGADLSDYFNYGFNEDTWKAYCEKQKRIRMGLEVIPVTSTTNKITAEDCTMEVTPGAEIQDGRFNLFKVQQGRTGNSEKETALPSTKAEFTSPPSLFKTGLPPSRNSTSSQSQTSTASRKANSSVGKWQDRYGRAESPDLRRLPGAIDVIGQTITISRVEGRRRANENSNIQVLSERSATEVDNNFSKPPPFFPPGAPPTHLPPPPFLPPPPTVSTAPPLIPPPGFPPPPGAPPPSLIPTIESGHSSGYDSRSARAFPYGNVAFPHLPGSAPSWPSLVDTSKQWDYYARREKDRDRERDRDRERDRDRDRERERTRERERERDHSPTPSVFNSDEERYRYREYAERGYERHRASREKEERHRERRHREKEETRHKSSRSNSRRRHESEEGDSHRRHKHKKSKRSKEGKEAGSEPAPEQESTEATPAE

- binding [5]: no binding
B7: RBBP6 (residues 1-335) P195G (domain or fragment, UniProt Q7Z6E9 1-335)
chain: B6 chain with P195G, G228Y
- binding [4]: no binding (tested: 2.5 µM CPSF, 7.5 µM RBBP6 mutant, no RNA)
